Assay results published in publication PMC4336329 (PLoS ONE, 2015).
The whole screen tested about 310,000 compounds, of which about 2,200 (0.71%) showed an effect of 50% or more. The effect is printed as a negative number. This is one part of the list.

These molecules were tested against human ether-à-go-go-related gene (hERG) potassium channel (human, UniProt Q12809) (assay: primary screen, population patch clamp on CHO cells stably expressing hERG).
Sequence of human ether-à-go-go-related gene (hERG) potassium channel (Q12809 whole entry, looked up): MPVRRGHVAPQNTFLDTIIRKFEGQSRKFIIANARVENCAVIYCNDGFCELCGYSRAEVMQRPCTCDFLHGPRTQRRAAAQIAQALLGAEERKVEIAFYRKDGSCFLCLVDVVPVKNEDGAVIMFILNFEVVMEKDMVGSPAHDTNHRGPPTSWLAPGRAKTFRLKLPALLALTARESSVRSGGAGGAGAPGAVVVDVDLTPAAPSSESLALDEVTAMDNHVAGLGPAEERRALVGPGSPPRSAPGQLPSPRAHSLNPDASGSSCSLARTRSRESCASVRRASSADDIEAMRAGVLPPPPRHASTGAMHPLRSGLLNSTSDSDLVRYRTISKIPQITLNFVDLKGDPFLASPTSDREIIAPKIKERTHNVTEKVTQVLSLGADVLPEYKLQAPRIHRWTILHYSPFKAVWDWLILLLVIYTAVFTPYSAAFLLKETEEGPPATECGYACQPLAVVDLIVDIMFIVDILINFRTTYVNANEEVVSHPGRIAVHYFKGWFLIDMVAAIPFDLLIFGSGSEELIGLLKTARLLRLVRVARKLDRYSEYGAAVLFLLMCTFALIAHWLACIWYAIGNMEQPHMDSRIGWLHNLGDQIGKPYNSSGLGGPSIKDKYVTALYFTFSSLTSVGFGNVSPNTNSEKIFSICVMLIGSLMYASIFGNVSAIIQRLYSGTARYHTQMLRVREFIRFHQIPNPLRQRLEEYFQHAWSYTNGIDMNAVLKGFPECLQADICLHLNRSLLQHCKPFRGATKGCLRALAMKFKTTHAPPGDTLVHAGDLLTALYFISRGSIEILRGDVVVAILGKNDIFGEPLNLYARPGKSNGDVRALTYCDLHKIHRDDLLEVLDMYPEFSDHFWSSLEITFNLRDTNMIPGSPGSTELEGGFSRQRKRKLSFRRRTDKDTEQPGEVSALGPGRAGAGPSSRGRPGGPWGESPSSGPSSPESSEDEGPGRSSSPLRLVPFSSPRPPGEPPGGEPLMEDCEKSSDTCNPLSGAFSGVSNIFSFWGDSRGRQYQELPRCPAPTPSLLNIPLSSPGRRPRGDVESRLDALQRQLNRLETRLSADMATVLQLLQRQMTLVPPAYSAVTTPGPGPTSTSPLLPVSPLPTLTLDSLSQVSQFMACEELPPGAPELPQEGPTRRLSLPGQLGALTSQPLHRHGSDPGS

Compound	hERG current change (%, negative = inhibition) at 1uM [%]
COc1ccc(Cn2c(=S)[nH]c3cc(C(=O)NCCCN4CCOCC4)ccc3c2=O)cc1	18.9
NC(=O)c1ccc(NC(=O)CSc2nnc(-c3ccncc3)n2Cc2ccco2)cc1	4.1
C=CCn1c(NC(=O)c2ccc(Br)o2)c(C(=O)OCC)sc1=S	24.5
COCc1c(C(=O)Nc2nc(C)cs2)oc2ccccc12	-5.72
C=CCOc1ccc(C2NC(=O)NC(C)=C2C(=O)OC)cc1 (centres unmarked)	-1.55
O=C(O)C1CCCN(S(=O)(=O)c2cccs2)C1 (centres unmarked)	3.47
NS(=O)(=O)c1ccc(NC(=O)CN2CCN(S(=O)(=O)/C=C/c3ccccc3)CC2)cc1	1.05
O=C(COC(=O)c1cccc(Cl)c1)Nc1cc(Cl)ccc1Oc1ccccc1	14.1
CCCCn1c(N)c(N(CC(C)C)C(=O)Cc2ccc3c(c2)OCCO3)c(=O)[nH]c1=O	9.47
CC(C)OCCCNc1ncnc2c1nc1n2CCCC1	4
NC(=O)CSc1nc(-c2ccccc2)nc2ccccc12	11.2
Cc1ccccc1C(=O)NC(=S)Nc1ccc2[nH]c(=O)[nH]c2c1	4.06
Cc1cc2c3c([nH]c2cc1S(=O)(=O)NCc1ccc(CN2CCCCCC2)o1)CCCC3=O	-1.58
O=C(NCC1CCCO1)c1cc2c(s1)CCC2 (centres unmarked)	19.4
CCc1ccc(N2C(=O)NC(=O)/C(=C\C=C\c3ccco3)C2=O)cc1	11.4
Cc1nn(C)c(NC(=O)c2ccccc2Cl)c1Br	10.8
N#Cc1cnc(N)c(Br)c1	12.3
Cc1ccc(C)c2[nH]c(=O)c(CCNS(=O)(=O)c3ccccc3)cc12	5.38
CCCCN(C(=O)C1CC(=O)N(Cc2ccc(C)cc2)C1)c1c(N)n(CCCC)c(=O)[nH]c1=O (centres unmarked)	14.1

Compound	hERG current change (%, negative = inhibition) at 1uM [%]
O=C(CSc1nc2ccccc2c(=O)n1Cc1ccco1)Nc1cccc(O)c1	5.35
COC(=O)C(C)n1cnc2c(nnn2Cc2ccc(Cl)cc2)c1=O (centres unmarked)	-1.32
Cc1nc2ccc(S(=O)(=O)NC(C(=O)N3CCCC3)C(C)C)cc2s1 (centres unmarked)	10.8
O=[N+]([O-])c1cc(C=Nc2ccc3ccccc3c2)ccc1Br	11.6
Cc1cc(C)n(C(=O)c2ccc([N+](=O)[O-])c(Cl)c2)n1	13
Cc1ccc(S(=O)(=O)N(C)c2ccc(C(=O)N3CCc4ccccc4C3)cc2)cc1	7.74
CCn1nccc1C(=O)Nc1ccc(Cl)cn1	11
O=C(OCn1nnc2ccccc2c1=O)c1ccc2c(=O)n3c(nc2c1)CCC3	4.92
Clc1nc(-c2ccccc2)c2ccccc2n1	12.6
CCCCNC(=S)NNC(=O)c1sccc1C	1.63
O=C(NCc1ccc2c(c1)OCO2)C(=O)NCC1OCCN1S(=O)(=O)c1ccc(F)cc1 (centres unmarked)	4.42
CCOC(=O)c1cc2c(ccn2C)n1CC(=O)N1CCCC(C)C1 (centres unmarked)	3.59
CCCCN1C(=O)/C(=C2/Sc3ccc(Cl)cc3N2CC)SC1=S	13.4
Nc1cc(C(=O)OCC(=O)NCc2ccco2)ccc1Cl	7.2
O=C(C[n+]1ccccc1)Nc1ccc(Oc2ccccc2)cc1.[Cl-]	11.7
NC(=O)Nc1cccc(C(F)(F)F)c1	9.97
C#CCCOC(=O)N1C2=NC(C(=O)OC)=C(C(=O)OC)[C@@H]3N(C)c4ccc(OC)cc4[C@]23C[C@H]1C(=O)OC	-0.338
Cn1c(C2CCCN2C(=O)OC(C)(C)C)n[nH]c1=S (centres unmarked)	7.14
CC(=O)Nc1cccc(NC(=O)CSc2nnnn2Cc2ccccc2)c1	4.42

Compound	hERG current change (%, negative = inhibition) at 1uM [%]
CCOc1ccc(N(CC(=O)NCc2ccccc2)C(=O)CCC(=O)Nc2nccs2)cc1	-2.78
COc1ccc(C2SCC(=O)N2c2ccc(OC)cc2)cc1 (centres unmarked)	13.5
CC(C)(C)c1ccc(Oc2ccc(NC(=O)c3ccccc3C(=O)O)cn2)cc1	10.8
O=C(c1ccc(F)c(F)c1)N1CCC2(CC1)NCCc1[nH]cnc12	16
Cc1nnc(SCC(=O)N(C)c2c(N)n(Cc3ccccc3)c(=O)[nH]c2=O)n1Cc1ccccc1	9.85
COC(=O)c1ccc(CN2CCN(CCC(C)C)C(CCO)C2)cc1 (centres unmarked)	-1.92
O=C(CN=C1NS(=O)(=O)c2ccccc21)OCC(=O)c1ccccc1	10.8
COc1cccc(-c2nnc(NC(=O)c3ccc(S(=O)(=O)N(CC(C)C)CC(C)C)cc3)o2)c1	15.7
CCOC(=O)C(O)(c1ccc(NC(=O)Oc2ccccc2)cc1)C(F)(F)F (centres unmarked)	-0.695
O=C(NCc1ccc(Cl)cc1)C(=O)N/N=C/c1ccc(Br)cc1	23.1
COCC1CCN(C(=O)c2ccc(OC)c(OC3CCN(C(C)C)CC3)c2)CC1	19.2
CCOc1ccc2nc(N/C(N)=N/C(=S)Nc3ccc(OC)cc3)nc(C)c2c1	8.56
CSc1nc2ccccc2s1	12.5
Cc1c(C(=O)NCc2cccnc2)oc2ccc(S(=O)(=O)N3CC(C)CC(C)C3)cc12 (centres unmarked)	13.6
CCOC(=O)C1CCN(C(=O)c2cccc(S(=O)(=O)N3CCc4ccccc43)c2)CC1	2.73
Cc1ccc2nc(-c3ccc(NC(=O)CCS(=O)(=O)c4ccccc4)cc3)sc2c1	4.86
CCOC(=O)c1cc(OC(=O)c2cccc([N+](=O)[O-])c2)n(-c2ccccc2)n1	6.6
CCCn1c(=O)c2c(nc3n2CC(C)CN3Cc2ccccc2)n(C)c1=O (centres unmarked)	0.265
